The test system of one experiment is HSkMC. As to the kind of experiment: cytotoxicity call (relative viability < 0.9). The conditions noted are these: 10 µM.
Another experiment relates to HepG2. As to the kind of experiment: cytotoxicity call (relative viability < 0.9). The conditions noted are these: 10 µM.
Another experiment relates to S. aureus RN4220. Put plainly: growth inhibition call (relative growth <= 0.2). The conditions noted are these: 50 µM.

The record followed here is the antibiotic and cytotoxicity screens of Wong et al. (2023).

Some of the results follow.

Consider `COc1ccc(CN(C)C[C@H]2OCCCC[C@@H](C)Oc3ccc(NC(=O)Nc4ccc5c(c4)OCO5)cc3C(=O)N([C@H](C)CO)C[C@@H]2C)cc1`, for which the cytotoxicity call in the experiment with HSkMC and in the experiment with HepG2 was “inactive” throughout. Further, in the experiment with S. aureus RN4220, the growth inhibition call is “inactive”.

For `C[C@@H]1CN([C@H](C)CO)C(=O)c2cccc(NC(=O)Nc3cccc4ccccc34)c2O[C@@H]1CN(C)Cc1ccc(C(=O)O)cc1`, the cytotoxicity call with HSkMC and in the experiment with HepG2 was “inactive” in each case. The growth inhibition call with S. aureus RN4220 was “inactive”.

With `Cc1ccccc1N1C(=O)c2cc(S(N)(=O)=O)c(Cl)cc2NC1C` (stereo not given), the cytotoxicity call in the experiment on HSkMC and in the experiment with HepG2 was “inactive” throughout. The growth inhibition call in the experiment on S. aureus RN4220 is “inactive”.

In the case of `C[C@@H]1CN([C@@H](C)CO)C(=O)c2cc(-c3ccc(C(=O)N(C)C)cc3)cnc2O[C@@H]1CN(C)C(=O)CN(C)C`, the cytotoxicity call in the experiment on HSkMC and in the experiment with HepG2 was “inactive” in each case. The growth inhibition call in the experiment on S. aureus RN4220 was “inactive”.

For the compound `c1coc(CNc2ncnc3[nH]cnc23)c1`, the cytotoxicity call with HSkMC and in the experiment on HepG2 was “inactive” in each case. Besides, in the experiment with S. aureus RN4220, the growth inhibition call is “inactive”.

Regarding `CCO[C@@H]1OC(C(=O)N2CCN(Cc3ccccc3)CC2)=C[C@H](c2csc3ccccc23)[C@H]1CCCOC(=O)NCCCCCC(=O)NO`, the cytotoxicity call with HSkMC and with HepG2 was “inactive” throughout. In addition, the growth inhibition call with S. aureus RN4220 is “inactive”.

With `C[C@@H]1CCCCO[C@H](CN(C)Cc2ccccc2)[C@@H](C)CN([C@H](C)CO)C(=O)c2cc(NC(=O)c3ccccc3)ccc2O1`, the cytotoxicity call in the experiment on HSkMC and with HepG2 was “inactive” throughout. Also, in the experiment on S. aureus RN4220, the growth inhibition call is “inactive”.

For the compound `C[C@@H]1CCCCO[C@H](CN(C)C(=O)c2ccccc2)[C@@H](C)CN([C@H](C)CO)C(=O)c2cc(NC(=O)C3CCCCC3)ccc2O1`, the cytotoxicity call in the experiment on HSkMC and with HepG2 was “inactive” each time. Besides, in the experiment on S. aureus RN4220, the growth inhibition call is “inactive”.

On to `CC1(C)OC(=O)C(OCC2CC2)=C1c1ccc(S(C)(=O)=O)cc1`, for which the cytotoxicity call in the experiment on HSkMC and with HepG2 was “inactive” throughout. Moreover, the growth inhibition call in the experiment on S. aureus RN4220 was “inactive”.

Take `COc1ccc2c3c(n(c2c1)C)[C@@H](CO)N(C[C@]13CN(Cc2cccc(c2)F)C1)C(=O)C1CCOCC1`: the cytotoxicity call in the experiment on HSkMC was “active”. The cytotoxicity call in the experiment on HepG2 is “inactive”. Further, in the experiment with S. aureus RN4220, the growth inhibition call is “inactive”.

Consider `C[C@@H]1CCCCO[C@@H](CN(C)C(=O)Nc2ccc(C(F)(F)F)cc2)[C@@H](C)CN([C@H](C)CO)C(=O)c2cc(NS(=O)(=O)c3cccs3)ccc2O1`, for which the cytotoxicity call in the experiment with HSkMC and with HepG2 was “inactive” each time. Also, the growth inhibition call with S. aureus RN4220 was “inactive”.

`CSC(=N)Nc1csc(C(F)(F)F)c1-c1ccccc1`: the cytotoxicity call in the experiment on HSkMC and in the experiment with HepG2 was “inactive” throughout. In addition, the growth inhibition call in the experiment with S. aureus RN4220 is “inactive”.

Take `C[C@@H]1CN([C@@H](C)CO)C(=O)CCCn2nncc2CO[C@@H]1CN(C)C(=O)c1cc(-c2ccccc2)on1`: the cytotoxicity call with HSkMC and in the experiment with HepG2 was “inactive” each time. Further, the growth inhibition call with S. aureus RN4220 is “inactive”.

For `O=C(O)P(=O)(O)O`, the cytotoxicity call with HSkMC and in the experiment with HepG2 was “inactive” each time. For the same compound, the growth inhibition call in the experiment on S. aureus RN4220 was “active”.

With `COc1ccccc1C#Cc1cnc2c(c1)C(=O)N([C@@H](C)CO)C[C@@H](C)[C@H](CN(C)S(=O)(=O)c1cn(C)cn1)O2`, in the experiment with HSkMC, the cytotoxicity call is “inactive”. Besides, in the experiment on HepG2, the cytotoxicity call was “active”. In addition, in the experiment on S. aureus RN4220, the growth inhibition call is “inactive”.

Turning to `Nc1ncccc1F`, the cytotoxicity call in the experiment on HSkMC and with HepG2 was “inactive” each time. Also, in the experiment with S. aureus RN4220, the growth inhibition call was “inactive”.

Regarding `C[C@@H]1CN([C@@H](C)CO)C(=O)c2cccc(NC(=O)C3CCOCC3)c2O[C@H]1CN(C)S(=O)(=O)c1cn(C)cn1`, the cytotoxicity call in the experiment with HSkMC and with HepG2 was “inactive” throughout. The growth inhibition call in the experiment on S. aureus RN4220 was “inactive”.

Take `C[C@H](CO)N1C[C@H](C)[C@@H](CN(C)C(=O)Nc2ccc(C(F)(F)F)cc2)OCCCC[C@H](C)Oc2ccc(NC(=O)c3ccccc3)cc2C1=O`: the cytotoxicity call in the experiment on HSkMC and in the experiment with HepG2 was “inactive” in each case. Moreover, the growth inhibition call in the experiment with S. aureus RN4220 was “inactive”.

With `CCOC(=O)c1cc2c(c(-c3cccc(-c4cccc(OC)c4)c3)n1)[C@@H](CCO)N(S(=O)C(C)(C)C)C2` (stereo not given in full), the cytotoxicity call in the experiment on HSkMC and in the experiment with HepG2 was “inactive” in each case. The growth inhibition call in the experiment with S. aureus RN4220 is “inactive”.

In the case of `COc1ccccc1CNC(=O)C[C@@H]1C[C@H]2c3cc(NC(=O)NC4CCCC4)ccc3O[C@H]2[C@H](CO)O1`, the cytotoxicity call in the experiment on HSkMC and with HepG2 was “inactive” in each case. Moreover, in the experiment with S. aureus RN4220, the growth inhibition call is “inactive”.

Turning to `C[C@H]1CN([C@@H](C)CO)C(=O)Cc2cc(NS(=O)(=O)c3ccccc3)ccc2O[C@H]1CN(C)S(C)(=O)=O`, the cytotoxicity call in the experiment with HSkMC and with HepG2 was “inactive” in each case. In the experiment on S. aureus RN4220, the growth inhibition call is “inactive”.

Take `CN1CCN(C(=O)C[C@H]2C[C@H]3c4cc(NS(=O)(=O)c5ccc(F)cc5)ccc4O[C@H]3[C@@H](CO)O2)CC1`: the cytotoxicity call with HSkMC and in the experiment on HepG2 was “inactive” in each case. In addition, in the experiment with S. aureus RN4220, the growth inhibition call was “inactive”.

Take `C[C@@H]1CN([C@H](C)CO)C(=O)CCCn2nncc2CO[C@@H]1CN(C)S(=O)(=O)c1ccc(Oc2ccccc2)cc1`: the cytotoxicity call in the experiment with HSkMC and in the experiment with HepG2 was “inactive” each time. The growth inhibition call in the experiment with S. aureus RN4220 is “inactive”.

Turning to `CCCN(C)C[C@@H]1OCCCC[C@@H](C)Oc2ccc(NC(=O)Nc3ccc4c(c3)OCO4)cc2C(=O)N([C@H](C)CO)C[C@H]1C`, the cytotoxicity call in the experiment on HSkMC (human skeletal muscle cells) and in the experiment with HepG2 was “inactive” each time. In addition, in the experiment on S. aureus RN4220, the growth inhibition call is “inactive”.

Turning to `COc1cc(CO)cc(I)c1O[C@H]1C=C(C(=O)NCCO)C[C@@H](NC[C@@H]2CCCO2)[C@@H]1O`, the cytotoxicity call with HSkMC and in the experiment with HepG2 was “inactive” each time. The growth inhibition call in the experiment with S. aureus RN4220 is “inactive”.

On to `O=C(N[C@H]1CC[C@H](CC(=O)N2CCOCC2)O[C@H]1CO)c1ccccn1`, for which the cytotoxicity call in the experiment with HSkMC and in the experiment with HepG2 was “inactive” in each case. Moreover, the growth inhibition call in the experiment with S. aureus RN4220 is “inactive”.

As for `CN1C(=O)/C(=C(/C#N)C(N)=O)c2ccccc21`, the cytotoxicity call with HSkMC and in the experiment on HepG2 was “inactive” throughout. In addition, the growth inhibition call in the experiment on S. aureus RN4220 is “inactive”.

Turning to `Cc1noc(C)c1S(=O)(=O)Nc1ccc2c(c1)CC(=O)N([C@H](C)CO)C[C@H](C)[C@@H](CN(C)S(C)(=O)=O)O2`, the cytotoxicity call in the experiment with HSkMC and with HepG2 was “inactive” throughout. Further, the growth inhibition call with S. aureus RN4220 was “inactive”.

On to `C[C@H](CO)N1C[C@H](C)[C@@H](CN(C)S(=O)(=O)c2ccc(Oc3ccccc3)cc2)OCc2cn(nn2)CCCC1=O`, for which the cytotoxicity call in the experiment with HSkMC and in the experiment on HepG2 was “inactive” each time. The growth inhibition call in the experiment with S. aureus RN4220 was “inactive”.

In the case of `C[C@@]1(C2CC2)Cc2cnnn2CCN1`, the cytotoxicity call with HSkMC and with HepG2 was “inactive” in each case. Besides, the growth inhibition call in the experiment with S. aureus RN4220 is “inactive”.
